Measurements published in PubChem BioAssay (Tox21).
Where “and” joins values, the source holds several entries; their conditions need not be identical. Identical values can stand only once. Only a part is listed here, and it is no random draw. Records with an inconclusive call do not appear. Where a structure was tested more than once in an assay, its records may differ in their call. Calls of active or inactive are those of the source. Unless noted, calls follow the shape of the dose curve; as a rule, active = well fitted curve in the direction sought with a large enough effect in the repeat runs; inconclusive = weak or mixed curves; inactive = no such curve, though single readings can be large; an effect the other way counts as inactive or inconclusive.

Assay: qHTS assay to identify small molecule antagonists of the androgen receptor (AR) signaling pathway - cell viability counter screen (AID 743033; also: nearly all actives have a fitted effect of over 45% in size)
Details: AR-bla HEK293 viability, CellTiter-Glo luminescence, 16 h
Potency is read from the fitted curve at half-maximal effect.

SMILES	Potency
COc1ccc2cc3[n+](cc2c1OC)CCc1cc2c(cc1-3)OCO2	active: 11 µM
c1ccc2occc2c1	active: 54.9 µM
S=C(NC1CCCCC1)NC1CCCCC1	active: 19.5 µM
S=c1[nH]c2ccccc2s1	active: 49 µM
CC(=O)[C@H]1CC[C@H]2[C@@H]3CCC4=CC(=O)CC[C@]4(C)[C@H]3CC[C@]12C	active: 27.4 µM
NC(=O)N/N=C/c1ccc([N+](=O)[O-])o1	active: 54.9 µM
Cc1cc(Cc2cc(C)cc(C(C)(C)C)c2O)c(O)c(C(C)(C)C)c1	active: 19.5 µM

Assay: qHTS assay to identify small molecule antagonists of the androgen receptor (AR) signaling pathway using the MDA cell line - cell viability counter screen (AID 743041; also: nearly all actives have a fitted effect of over 45% in size; as to viability change, negative = cytotoxic: % is scaled to controls: 0 for no effect and ±100 for the full control effect)
Details: MDA-kb2 viability, CellTiter-Fluor, 16 h, cells co-treated with R1881 androgen agonist; series mostly up to 70.3 µM; viability change, negative = cytotoxic: at the top concentration
Summary of the method: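 qHTS viability read-out; MDA-kb2 AR-luc; R1881-stimulated; 16 h exposure at 37C, 0% CO2; CellTiter-Fluor, 30 min; fluorescence intensity.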

SMILES	viability change, negative = cytotoxic	Potency
CC(CN1c2ccccc2Sc2ccccc21)N(C)C (stereo not given)	inactive: -6.23%	–
CCCCCCCC[Si](OCC)(OCC)OCC	inactive: 0.733%	–
NC(=O)N/N=C/c1ccc([N+](=O)[O-])o1	–	active: 54.5 µM
Oc1c(Cl)cc(Cl)cc1Sc1cc(Cl)cc(Cl)c1O	–	active: 43.4 µM and active: 68.6 µM
CC(C)CCCCCCc1ccc(O)cc1	inactive: -17.3% [at 95 µM]	–

Assay: qHTS assay to identify small molecule antagonists of the estrogen related receptor signaling pathway with the pleiotropic PPARgamma coactivator (PGC) from Tox21 10K library - cell viability counter screen (AID 1224840; active = well fitted cell-killing curve with a large enough effect in the repeat runs, not every such curve was filed as active; also: nearly all actives have a fitted effect of over 40% in size; as to viability change, negative = cytotoxic: % is scaled to controls: 0 for no effect and ±100 for the full control effect)
Details: PGC/ERR reporter cells viability, CellTiter-Fluor, 17.5 h; series mostly up to 92.4 µM; viability change, negative = cytotoxic: at the top concentration
Summary of the method: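 Readout: fluorescence intensity from CellTiter-Fluor after 30 min at 37 C/5% CO2. Preceded by 17.5 h treatment of PGC/ERR cells with DMSO-dissolved compounds, added 6 h post-seeding.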

SMILES	viability change, negative = cytotoxic	Potency
CN(C)c1ccc(N=NS(=O)(=O)O)cc1	inactive: -18.6%	–
Nc1cccc2c(N)cccc12	inactive: -7.39%	–
CC(C)CCCCCCc1ccc(O)cc1	–	active: 2.78 µM
